Laboratory results published in the BET-seq Pho4 binding data (Le et al. 2018).
The list shows a part of the results. Values were computed here from the reads of four pooled replicates and scatter widely.

The sequences below were run against T1, Pho4 (S. cerevisiae) (UniProt P07270) (assay: relative binding free energy (BET-seq); higher = weaker binding). Conditions: reference: library average.
T1 sequence: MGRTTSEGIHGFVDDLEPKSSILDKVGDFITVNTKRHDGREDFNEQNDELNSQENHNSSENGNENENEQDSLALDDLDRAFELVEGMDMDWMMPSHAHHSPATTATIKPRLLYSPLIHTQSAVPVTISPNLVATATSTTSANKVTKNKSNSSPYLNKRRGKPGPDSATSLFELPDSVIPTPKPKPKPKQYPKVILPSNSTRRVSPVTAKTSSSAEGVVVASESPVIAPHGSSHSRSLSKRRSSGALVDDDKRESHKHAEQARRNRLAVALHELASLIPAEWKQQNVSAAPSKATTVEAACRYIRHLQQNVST

Relative binding free energy, 0.51 kcal/mol:
GAATTCACGTGATGGC

Relative binding free energy, 0.48 kcal/mol:
GAGTTCACGTGACTTT

Relative binding free energy, -0.12 kcal/mol:
TTGGACACGTGCGAGG
ACGTGCACGTGTTATG

Relative binding free energy, 0.32 kcal/mol:
GGTCTCACGTGTGGTG
CGTTTCACGTGGTAGC
GGGTTCACGTGGTTGA

Relative binding free energy, -0.19 kcal/mol:
GCTGGCACGTGGGTGA
CATATCACGTGGGTGT
AGTGGCACGTGTGCAG
TGGACCACGTGGGGGG
TAGGGCACGTGGTCTT
TGCGGCACGTGGGGAG

Relative binding free energy, 0.11 kcal/mol:
AAGATCACGTGTTGTT
TCTTTCACGTGGGTGC
GTGTGCACGTGTGTCC
TCGGTCACGTGGTTGG
CCGTTCACGTGGGGGT
GGATACACGTGGTTAG

Relative binding free energy, -0.11 kcal/mol:
TGTGTCACGTGGCCTG
TAATGCACGTGGAGGA
TTAGGCACGTGCCGTT
AGGTGCACGTGCTTGT
AATGGCACGTGTCATG

Relative binding free energy, -0.04 kcal/mol:
GGGTGCACGTGCGTGG
TGTAACACGTGTTTAA
TTCGTCACGTGGTGCT

Relative binding free energy, 0.39 kcal/mol:
AGTTTCACGTGGTAGA
GGGCTCACGTGTCTTG

Relative binding free energy, 0.28 kcal/mol:
ATCATCACGTGATATT
CATTGCACGTGAGGTC
GACATCACGTGTTAGT

Relative binding free energy, 0.13 kcal/mol:
TATGTCACGTGTATCA
ATCGTCACGTGCGTGA
GCTCTCACGTGGTGGT

Relative binding free energy, 0.56 kcal/mol:
AACTTCACGTGAGGTA

Relative binding free energy, 0.46 kcal/mol:
GTGATCACGTGAGGAA

Relative binding free energy, 0.04 kcal/mol:
TGTTGCACGTGGTAGG
CTTTACACGTGGTTGT
GGGCACACGTGGTGGG
ATTTGCACGTGTGATG
GGGGACACGTGTGCTT
CTGCGCACGTGATTGG
GTTTCCACGTGGAGGT
GTGTGCACGTGGAAGG
ATAGACACGTGTGCTG

Relative binding free energy, 0.34 kcal/mol:
TAGAACACGTGAGATG

Relative binding free energy, 0.12 kcal/mol:
GGGGGCACGTGATTGG
TAGGTCACGTGGTGGC
GATTGCACGTGTTGTT
AGTTGCACGTGTCGGA

Relative binding free energy, 0.23 kcal/mol:
TTTTACACGTGATGTA

Relative binding free energy, -0.03 kcal/mol:
AGAGACACGTGGTCGT
TGGAGCACGTGCCTTG
TTGGGCACGTGACGAG
ATATGCACGTGTATGT
TATTACACGTGGGGCA

Relative binding free energy, -0.09 kcal/mol:
TTTCGCACGTGGGGCT
ACTTGCACGTGGTATT
GTGGCCACGTGGTGCG
CGGACCACGTGGGTGG
TGATACACGTGCGTTG

Relative binding free energy, 0.27 kcal/mol:
AACTTCACGTGCGGGG
TAATTCACGTGTGGGG
GTATTCACGTGGGATT

Relative binding free energy, 0.16 kcal/mol:
AGCTTCACGTGCTGGT
GATTCCACGTGTTAGG
TACGTCACGTGTGATT
TCTGTCACGTGATAGG
TGGGTCACGTGTAGGG
TATATCACGTGTGACT

Relative binding free energy, -0.17 kcal/mol:
CGTAGCACGTGGGGGT
TTTGGCACGTGGTGGC

Relative binding free energy, -0.27 kcal/mol:
TGTGGCACGTGGCAGT

Relative binding free energy, 0.36 kcal/mol:
TAGTTCACGTGGTTCA
TGATTCACGTGAAATT
GGTATCACGTGGAATA
TGATTCACGTGTTGGT

Relative binding free energy, 0.2 kcal/mol:
ACTTGCACGTGATGTT
CTAGGCACGTGAAAGG
TGTTACACGTGTTGCG
GGCGTCACGTGCAAGG

Relative binding free energy, 0.21 kcal/mol:
TAGCTCACGTGTTAGG

Relative binding free energy, 0.3 kcal/mol:
TTGGACACGTGATGGT
GGTTTCACGTGTTAAT

Relative binding free energy, -0.07 kcal/mol:
GAAGTCACGTGGGGGA

Relative binding free energy, -0.2 kcal/mol:
CGTAGCACGTGGGAGG
GGAGGCACGTGGGTGA

Relative binding free energy, 0.25 kcal/mol:
TACGTCACGTGAGTGG
GAGTTCACGTGGGTAA
GCTGTCACGTGATCGG

Relative binding free energy, -0.14 kcal/mol:
TGCGGCACGTGTGTGA
TTAAGCACGTGTCGTG

Relative binding free energy, 0.22 kcal/mol:
TGGATCACGTGGTTGG
AGGTCCACGTGAGGCG
CGTGTCACGTGACAGT
GGGCTCACGTGGGCGC

Relative binding free energy, 0.05 kcal/mol:
AGTGGCACGTGACTGG
AGTGGCACGTGATAAA
CTATTCACGTGGGGTG
CTGAGCACGTGATTGT

Relative binding free energy, 0.09 kcal/mol:
TTATGCACGTGAGAGT
TGGAGCACGTGGAAAG
AGGTGCACGTGACTGT

Relative binding free energy, 0.02 kcal/mol:
GGCTGCACGTGGTATT
ATGTCCACGTGTGGTG
TTAGACACGTGGTGAG
GGGGACACGTGTGTAA
GTTTGCACGTGATTCA
AGAGGCACGTGATTGA
ATGGGCACGTGACGCG
TAAATCACGTGGTAAG

Relative binding free energy, 0.57 kcal/mol:
GGATTCACGTGACTAG

Relative binding free energy, 0.18 kcal/mol:
TGACTCACGTGGAGTG
AGGTACACGTGTGTAG
GGTATCACGTGGACTG

Relative binding free energy, 0.15 kcal/mol:
GTATGCACGTGGCATC

Relative binding free energy, 0 kcal/mol:
TAGGTCACGTGGCGTT
TTACACACGTGATGGG
TTAGGCACGTGGGAAT
GCGTACACGTGCGTGG

Relative binding free energy, 0.31 kcal/mol:
TGTTTCACGTGATGTA
AGTTTCACGTGAAGTG

Relative binding free energy, 0.41 kcal/mol:
TGGTACACGTGAATCG

Relative binding free energy, 0.38 kcal/mol:
TGTTGCACGTGAATAT

Relative binding free energy, -0.05 kcal/mol:
GAGTCCACGTGGGGGT
AGTGACACGTGGTGGT
AGGAACACGTGGGATT
ACGGGCACGTGTGGTC

Relative binding free energy, 0.24 kcal/mol:
TGGATCACGTGACGGT
AGTGTCACGTGACGTC
ATCGTCACGTGATGTT
GAATTCACGTGGGGCG
TGTTACACGTGTTCAG
AGAATCACGTGATTGG
TGTTTCACGTGCGGCG
GGGTTCACGTGGGTGA

Relative binding free energy, -0.02 kcal/mol:
TTGGCCACGTGTTGTG
GATTGCACGTGGGCTT
CGGGGCACGTGTATTG
AAATGCACGTGGATTT

Relative binding free energy, -0.21 kcal/mol:
CTGTACACGTGGGTTG
TACGGCACGTGGGCAG
GTAGGCACGTGGGTTC

Relative binding free energy, -0.23 kcal/mol:
TGTGGCACGTGGTCGT
TAGCGCACGTGGGGCG

Relative binding free energy, 0.29 kcal/mol:
ATTGTCACGTGAGCTA
TTCTGCACGTGAGGTT

Relative binding free energy, 0.08 kcal/mol:
GTGGACACGTGATGCT
CGGATCACGTGGGGTC
GTCGACACGTGGTAGG

Relative binding free energy, -0.06 kcal/mol:
GGGGCCACGTGTGTGT
TTAAGCACGTGTTAGT
AACGGCACGTGGATGT

Relative binding free energy, -0.15 kcal/mol:
TGGGGCACGTGTATGA
TAGGGCACGTGGATCG
AGGTGCACGTGTGCTT

Relative binding free energy, 0.06 kcal/mol:
GGCATCACGTGGGTGG
TAGGTCACGTGTTGAG

Relative binding free energy, -0.1 kcal/mol:
TGGGGCACGTGTCCGG
TCACACACGTGGGGGG
GCGTGCACGTGGGTGT
TGCTGCACGTGGGATG
TTTTGCACGTGCGGGA
AGGCACACGTGGGTTT

Relative binding free energy, 0.26 kcal/mol:
TATTTCACGTGTGTGC
AGTTGCACGTGAGGTA
AGGTACACGTGTGGGC
TGTAGCACGTGAAGTA
GAGGACACGTGTAAGG

Relative binding free energy, 0.03 kcal/mol:
GGGTACACGTGCTATG
TTGGTCACGTGGTGTG
AATGGCACGTGTTTTT

Relative binding free energy, 0.43 kcal/mol:
TTTATCACGTGATTGC

Relative binding free energy, 0.1 kcal/mol:
TGAGTCACGTGTGCAG
ATGTACACGTGTCGGG
GATGACACGTGGTTAA
CATGTCACGTGTTGCT

Relative binding free energy, -0.28 kcal/mol:
ATTGGCACGTGGCAAG

Relative binding free energy, -0.22 kcal/mol:
TATGGCACGTGGTCAA
AATGCCACGTGGGGGG

Relative binding free energy, 0.14 kcal/mol:
AGTTACACGTGTCGTT
GTAATCACGTGCTTTG
AGGTGCACGTGAGAGC
GTATGCACGTGAGATA
CAATTCACGTGGTGTG
GGTTGCACGTGTGTAT

Relative binding free energy, -0.18 kcal/mol:
TAGAGCACGTGGCATG
GTTGGCACGTGGGAGA
TGAGGCACGTGCAGTA
TGTAGCACGTGTACTG
TCGAGCACGTGGGGCG
AAGGGCACGTGCTAGT

Relative binding free energy, -0.08 kcal/mol:
GGGGACACGTGCAGGT
ATGGGCACGTGGTTAT

Relative binding free energy, 0.17 kcal/mol:
CGGGGCACGTGAGGAG
TCGGACACGTGAGGGA
GTGGTCACGTGTGGCT
TGTGACACGTGGAAAG
GTTGTCACGTGGATTG
ATTAGCACGTGAAATT
TTTTGCACGTGTAACT

Relative binding free energy, -0.24 kcal/mol:
AGTGGCACGTGGTAGC
ACCTGCACGTGGGTGT

Relative binding free energy, 0.35 kcal/mol:
TTGAGCACGTGAAATG

Relative binding free energy, 0.01 kcal/mol:
TTCAACACGTGTGTTA
TGGCGCACGTGTAGGG
GAGGCCACGTGTTAGG
TGAAACACGTGTTAGG
ATTGTCACGTGGTAAC

Relative binding free energy, -0.16 kcal/mol:
GGGGGCACGTGGGGTA
TGATCCACGTGGGTTG
CGTTCCACGTGGGGAG
GGTAGCACGTGGGAGT

Relative binding free energy, 0.54 kcal/mol:
GAGGTCACGTGAGTCG
GGATTCACGTGAGTGC

Relative binding free energy, -0.01 kcal/mol:
AATCGCACGTGTGTGT
CTTTACACGTGGTGGT
TGTCGCACGTGATTGG
AAGGTCACGTGGTGTG

Relative binding free energy, 0.07 kcal/mol:
GTGTGCACGTGTGGCC
GGCAACACGTGGTCGG
GGGTACACGTGTGTGA
TGGTACACGTGTTTGT

Relative binding free energy, 0.19 kcal/mol:
GAGGTCACGTGTGTCG
ATTCTCACGTGGAGTA
GTATTCACGTGGTCAT

Relative binding free energy, -0.13 kcal/mol:
AGTCACACGTGGGTAG
TAGAGCACGTGGTCTG
AGGCGCACGTGGGGTC
